Measurements from the supplement of paper PMC12889115.
Some of the results follow. Rule as the data show it: active = 25% or less and inactive = the rest. Most values come without repeats; read them as rough.

These molecules were tested on Salmonella enterica serovar Typhimurium SL1344 (assay: intramacrophage bacterial GFP load (SAFIRE), percent of DMSO control (% of DMSO); higher = more intracellular bacteria (less inhibition)). Conditions: 25 µM; system: infected RAW 264.7 macrophages.
Experimental: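 Secondary screen of the 553 primary hits at 25 µM. (i) S. Typhimurium SL1344 grown in Mueller-Hinton broth with 0.5 µg/mL polymyxin B, OD600 read after 18 h. (ii) SAFIRE assay: RAW 264.7 macrophages infected with S. Typhimurium sifB::gfp (MOI 30); compound added 2 h post-infection; cells fixed at 18 h; GFP-positive pixel fraction per macrophage imaged by confocal microscopy and expressed as % of DMSO control.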
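Also: compounds tested were the hits of an earlier 50 µM broth growth screen of a drug-like diversity library run with polymyxin B.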

Intramacrophage bacterial GFP load, active:
OCC1(Cc2cccc(Cl)c2)CCCN(Cc2ccc(F)c(F)c2)C1 (stereo not given) 15.7
COc1cc(CN2CCCC(CO)(Cc3cccc(Cl)c3)C2)cc(Cl)c1OC (stereo not given) 2.83
CCOc1ccc2nc(N3CCC(NC(Cn4cccn4)c4ccccc4)CC3)nc(C)c2c1 (stereo not given) 22.8
CCOC(=O)C1(CCc2ccccc2)CCCN(C(=O)c2ccc(OC)o2)C1 (stereo not given) 13.8
COc1ccc2c(c1)OC(C)CN(CC(C)Cc1ccc3c(c1)OCO3)C2 (stereo not given) 15.2

Intramacrophage bacterial GFP load, inactive:
OCCOc1cccc(CN2Cc3ccccc3OC(c3ccccc3F)C2)c1 (stereo not given) 95.8
O=C(NC1Cc2ccccc2C1)c1coc(COc2cccc(F)c2)n1 149
COc1ccc(-c2ccc(C(=O)N(Cc3ccncc3)Cc3cccc(OCCc4ccc(F)cc4)c3)o2)cc1 69.8
CC(=O)c1ccc(F)c(-c2cc(C)cc3c2OC(CNC(=O)c2ccccc2F)C3)c1 (stereo not given) 112
Cc1cccc(N2CCN(C(=O)c3cn(Cc4ccccc4F)nn3)CC2)c1C 135
CCN(Cc1ccccc1)C(=O)CC1(c2cccc(C(F)(F)F)c2)CC(=O)N(C2CC2)C1=O (stereo not given) 91.6
COc1ccc2c(c1)SC(c1ccc3c(c1)OCO3)CCN2Cc1ccsc1 (stereo not given) 94.7
Cc1ccc(CN2CCCC2C(=O)Nc2cccc(-n3cccn3)c2)s1 (stereo not given) 108
COC1CCN(C(=O)CC(c2ccccc2)c2ccccc2Cl)CC1 (stereo not given) 83.4
C=CCC(=O)N1CCCC1C(=O)Nc1ccc(-c2cccc(OC)c2)cc1 (stereo not given) 138
